Experimental data as given in PubChem BioAssay AID686978 (National Center for Advancing Translational Sciences (NCATS), 2013).
Values joined by “and” are separate entries in the source; they are usually repeats but may differ in a detail not shown here. Identical values can stand only once. The whole screen tested about 420,000 compounds, of which about 64,000 (15%) were called active. Inconclusive results, whose numbers are uncertain, are shown with a selection of clear calls. Calls come from the whole dose curve; as a rule, active = well fitted inhibition curve with a large enough effect; inconclusive = small, poorly fitted or top-dose-only effect; inactive = flat fitted curve, though single readings scatter. Potencies of inconclusive entries are left out as doubtful fits. The source holds several records for some structures; these can differ, active in one and inactive in another.

Assay: qHTS for Inhibitors of human tyrosyl-DNA phosphodiesterase 1 (TDP1): qHTS in cells in absence of CPT; note: nearly all actives have a fitted effect of over 55% in size
Settings: DT40 Tdp1-/- hTDP1 cells, no CPT, ATP luminescence, 48 h; activity change, negative = growth inhibition: at 46.2 µM (top of the series) unless noted
Summary of the method: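 Chicken DT40 Tdp1-/- cells complemented with human TDP1, screened without camptothecin (DMSO vehicle only), 400 cells/well. Compounds pin-transferred, cells incubated at 37 °C for at least 48 hr. Growth read as ATP-dependent luminescence (CellTiter-Glo, 30 min at RT).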
% is set by controls: 0 for no effect and ±100 for the full control effect; potency is the fitted concentration of half-maximal effect; tags give direction and shape of the fitted curve.

**Q.** With COc1ccc(/C=N/Nc2nc(-c3cccnc3)nc3ccccc23)c(OC)c1 as the molecule, how does the Potency read?
**A.** inconclusive [inhibitor, single point]

**Q.** Which Potency does the source give for O=C1c2cccnc2C(=O)N1Cc1ccc2c(c1)OCO2 here?
**A.** inactive

**Q.** Which Potency does the source give for CCc1csc(CCNC(=O)C2CCC(=O)N(Cc3cccc(C(F)(F)F)c3)C2)n1 (configuration not stated) here?
**A.** inactive

**Q.** For Cc1ccc(C(C(=O)NC2CCCCC2)N(Cc2ccccc2)C(=O)Cc2c[nH]c3ccccc23)o1 (configuration not stated), which Potency is on record?
**A.** inconclusive [inhibitor, single point]

**Q.** Which Potency does the source give for CCCC1(c2ccccc2)NC(=O)N(CC(=O)c2[nH]c(C)c(C(=O)OCC)c2C)C1=O (configuration not stated) here?
**A.** active: 20.6 µM

**Q.** With C=CCc1ccc(OCc2ccc(C(=O)Nc3ccc(NC(C)=O)cc3)o2)c(OC)c1 as the molecule, how does the Potency read?
**A.** active: 16.4 µM

**Q.** For COc1cccc(C2=CC(=O)C[C@H](c3ccc4c(c3)OCO4)C2)c1, which Potency is on record?
**A.** inconclusive [inhibitor, single point]

**Q.** For CC(=O)N/C(=N\c1nc(C)cc(C)n1)Nc1ccccc1Cl, which Potency is on record?
**A.** inactive

**Q.** For CC(C)=CCCC(C)CN1CCC(n2nccc2NC(=O)c2cccnc2)CC1 (configuration not stated), which Potency is on record?
**A.** inconclusive [inhibitor, single point]

**Q.** For CCCn1c(SCC(=O)Nc2cccc(Cl)c2Cl)n[nH]c1=O, which Potency is on record?
**A.** inactive

**Q.** For COCCN1C(=O)COc2ccccc2C1C(=O)Nc1c(C)cccc1C (configuration not stated), which Potency is on record?
**A.** inactive

**Q.** With COc1cc(OC)c(C(=O)OCC(=O)NC2CCCCCCC2)cc1OC as the molecule, how does the Potency read?
**A.** inconclusive [inhibitor, single point]

**Q.** For Cc1cccc2sc(N(CCCN(C)C)C(=O)c3ccc(C(=O)c4ccccc4)cc3)nc12, which Potency is on record?
**A.** inconclusive [inhibitor, single point]

**Q.** For Cc1ccc(C)c(NC(=S)N2CCN(CCO)CC2)c1, which Potency is on record?
**A.** inactive

**Q.** With Cn1c(-c2c(N)n(C3CCCC3)c3nc4ccccc4nc23)nc2ccccc21 as the molecule, how does the Potency read?
**A.** inconclusive [inhibitor, single point]

**Q.** With Nc1nc(NCCc2ccccc2)c2[nH]cnc2n1 as the molecule, how does the Potency read?
**A.** inconclusive [inhibitor, single point]

**Q.** For C/C(=N\OCC(=O)Nc1c(C)cc(C)cc1C)c1ccc2c(c1)OCCO2, which Potency is on record?
**A.** inconclusive [inhibitor, single point]

**Q.** For COc1cccc(NC(=O)CN(C)C(=O)c2ccc(-c3ccccc3Cl)o2)c1, which Potency is on record?
**A.** inconclusive [inhibitor, partial curve]

**Q.** For CCc1oc2ccccc2c1C(=O)c1cc(I)c(O)c(I)c1, which Potency is on record?
**A.** inconclusive [inhibitor, single point]

**Q.** With CCCCOc1ccc(N=Cc2ccc[nH]2)cc1 as the molecule, how does the Potency read?
**A.** inactive

**Q.** With CCN(CC)CCCNc1nc(-n2nc(C)cc2C)nc2sc3c(c12)CC(C)(C)OC3 as the molecule, how does the Potency read?
**A.** inconclusive [inhibitor, single point]

**Q.** Which Potency does the source give for COc1cc(/C=C(\NC(=O)c2ccccc2)C(=O)N2CC3CC(C2)c2cccc(=O)n2C3)cc(OC)c1OC (configuration not stated) here?
**A.** inactive

**Q.** For COc1cccc(NC(=O)Nc2cc(Cl)ccc2C)c1, which Potency is on record?
**A.** inconclusive [inhibitor, single point]

**Q.** Which Potency does the source give for COc1ccc2c(c1)c(=O)oc1cc(OCC(=O)N3CCC(C)CC3)ccc12 here?
**A.** active: 20.6 µM

**Q.** For O=C(Nc1ccccc1)OCCc1ccccc1, which activity change, negative = growth inhibition is on record?
**A.** inconclusive: -4.59% [inhibitor]

**Q.** Which activity change, negative = growth inhibition does the source give for Cc1ccc(NC(=O)c2cc(NC(=O)/C=C\C(=O)O)ccc2N2CCCCC2)cc1 here?
**A.** inconclusive: -30.1% [inhibitor]

**Q.** Which Potency does the source give for CCC(=O)N1CCc2cc(CNS(=O)(=O)c3ccc(Br)s3)ccc21 here?
**A.** inconclusive [inhibitor, partial curve, poor fit]

**Q.** Which Potency does the source give for Cc1cc(C)cc(NC(=O)N2CCC(CN3CCc4ccccc4C3)CC2)c1 here?
**A.** active: 13 µM

**Q.** For CCc1cccc(OCC2Cn3c(nc4c3c(=O)n(C)c(=O)n4C)O2)c1 (configuration not stated), which Potency is on record?
**A.** inconclusive [inhibitor, single point]

**Q.** With O=C(C1CC(=O)N(c2ccc3c(c2)OCCO3)C1)N1CCN(c2ccccc2O)CC1 (configuration not stated) as the molecule, how does the Potency read?
**A.** inconclusive [inhibitor, partial curve]

**Q.** With CCCCCCCCCCOC(=O)Cn1c(COc2ccc(C)cc2)[n+](C)c2ccccc21 as the molecule, how does the Potency read?
**A.** active: 3.26 µM

**Q.** With c1ccc(CCNc2nc(-c3ccncc3)cs2)cc1 as the molecule, how does the Potency read?
**A.** inconclusive [inhibitor, single point]

**Q.** For CN(C)c1ccc(/C=C\C=C/c2ccnc3ccccc23)cc1, which Potency is on record?
**A.** active: 0.1 µM

**Q.** For Cc1ccc(/C=C/c2ccc3cccc(O)c3n2)s1, which Potency is on record?
**A.** active: 16.4 µM

**Q.** For C=CCN(c1ccccc1OC)S(=O)(=O)c1cccc(C(=O)NCc2cccs2)c1, which Potency is on record?
**A.** active: 18.4 µM

**Q.** Which Potency does the source give for O=C1c2ccccc2-c2nc3ncnn3c(-c3ccccc3Cl)c21 here?
**A.** inconclusive [inhibitor, single point]

**Q.** Which Potency does the source give for Cc1cccc(C)c1NC(=O)CN1CCN(c2ccc(F)cc2)CC1 here?
**A.** active: 20.6 µM

**Q.** Which Potency does the source give for Cc1ccc(NS(=O)(=O)c2ccc3[nH]c4c(c3c2)CCCCCC4)cc1 here?
**A.** inconclusive [inhibitor, single point]

**Q.** Which Potency does the source give for CC1CCCN(S(=O)(=O)c2ccc(N3CCCCS3(=O)=O)cc2)C1 (configuration not stated) here?
**A.** inactive

**Q.** For O=C(COc1ccc2c(-c3ccccc3)cc(=O)oc2c1)NC1CCS(=O)(=O)C1 (configuration not stated), which Potency is on record?
**A.** inconclusive [inhibitor, partial curve]

**Q.** For O=S(=O)(c1ccc(Cl)cc1)N1CCN(c2nc(-c3ccccc3)nc3ccccc23)CC1, which Potency is on record?
**A.** active: 10 µM

**Q.** With Nc1c(-c2ccccc2)c(CSc2nc3ccccc3[nH]2)nn1-c1ccc(Cl)cc1 as the molecule, how does the Potency read?
**A.** inconclusive [inhibitor, single point]

**Q.** Which Potency does the source give for O=c1c2c(nc3nc(Cc4ccccc4)[nH]n13)CCC2 here?
**A.** inconclusive [inhibitor, full curve]

**Q.** With CC(C)(C)c1ccc(S(=O)(=O)N2CCCCC2C(=O)NCc2ccccn2)cc1 (configuration not stated) as the molecule, how does the Potency read?
**A.** inconclusive [inhibitor, partial curve]

**Q.** Which Potency does the source give for Cc1ccc(C(=O)Nc2cccc3cccnc23)cc1C here?
**A.** inconclusive [inhibitor, single point]

**Q.** Which Potency does the source give for COc1ccc(CCC(=O)Nc2ccc(OC)c(S(=O)(=O)N3CCCCC3)c2)cc1 here?
**A.** inactive

**Q.** Which activity change, negative = growth inhibition does the source give for COc1ccc(-n2c(C)nc3cc(C(=O)NC4CCCCCC4)ccc32)cc1 here?
**A.** inconclusive: -30.8% [inhibitor]

**Q.** Which Potency does the source give for COC(=O)c1c(NC(=O)c2nc(SCc3ccccc3C)ncc2Cl)sc2c1CCCC2 here?
**A.** inactive

**Q.** Which Potency does the source give for Cc1ccc(C)c(N2C(=O)N(C)c3ccccc3S2(=O)=O)c1 here?
**A.** inconclusive [inhibitor, single point]

**Q.** For CCc1cccc(NC(=O)C2CCC(CNS(=O)(=O)c3ccc4c(c3)CCCC(=O)N4)CC2)c1 (configuration not stated), which Potency is on record?
**A.** inconclusive [inhibitor, single point]

**Q.** Which Potency does the source give for COCCN1CCN(C(=O)c2cc(COc3ccc(F)cc3Cl)on2)CC1 here?
**A.** inconclusive [inhibitor, single point]

**Q.** For CC1Cc2ccccc2N1C(=O)Cn1cc(C(F)(F)F)ccc1=O (configuration not stated), which activity change, negative = growth inhibition is on record?
**A.** inconclusive: -35.9% [inhibitor]

**Q.** With CCc1cc(C(=O)N2CCN(c3ncc(C(F)(F)F)cc3Cl)CC2)sc1C as the molecule, how does the Potency read?
**A.** inconclusive [inhibitor, partial curve]

**Q.** Which Potency does the source give for CCOc1ccc(C(=O)COC(=O)C2CCN(c3ccc(C(F)(F)F)cn3)CC2)cc1 here?
**A.** inconclusive [inhibitor, single point]

**Q.** For O=C(N/N=C/c1ccc([N+](=O)[O-])o1)c1ccc(O)cc1, which Potency is on record?
**A.** active: 5.17 µM and active: 2.86 µM

**Q.** With Cc1[nH]nc(C(=O)NN=Cc2ccccc2Cl)c1N=NN(C)C as the molecule, how does the Potency read?
**A.** active: 6.51 µM

**Q.** For Cc1ccc(CCNC(=O)CCn2ccc3cc(S(=O)(=O)N4CCCC4)ccc32)cc1, which Potency is on record?
**A.** inconclusive [inhibitor, partial curve, poor fit]

**Q.** For CCOC(=O)c1cccc(NC(=O)CSc2nc3ccccc3c(=O)n2CCOC)c1, which Potency is on record?
**A.** active: 20.6 µM

**Q.** Which Potency does the source give for O=C(Nc1ccc2c(c1)nc1n2CCSC1)c1ccccc1 here?
**A.** inactive

**Q.** For CCN(C(=O)Cn1c(=O)nc(-c2ccccc2)c2cc(Cl)ccc21)c1cccc(C)c1, which Potency is on record?
**A.** inactive

**Q.** Which Potency does the source give for COc1ccc(Nc2c(-c3cc4ccccc4o3)nc3nc(C)cc(C)n23)cc1 here?
**A.** inconclusive [inhibitor, single point]

**Q.** With Nc1ccc2c(c1)Cc1c(F)cccc1-2 as the molecule, how does the Potency read?
**A.** inconclusive [inhibitor, single point]

**Q.** With COc1ccc(CC(N)C(=O)NC2C(O)[C@H](n3cnc4c(N(C)C)ncnc43)O[C@@H]2CO)cc1 (some centres not stated) as the molecule, how does the Potency read?
**A.** active: 22.1 µM

**Q.** For Clc1ccccc1-c1nnc(-c2ccccc2CNc2ccc(Br)cc2)o1, which Potency is on record?
**A.** inconclusive [inhibitor, single point]

**Q.** Which Potency does the source give for COc1ccc(N(C)S(=O)(=O)c2ccc(Cl)c(C(=O)NCCc3ccc(Cl)cc3)c2)cc1 here?
**A.** active: 11.6 µM

**Q.** For COc1ccc(C(=O)N2CC(=O)N(CCc3ccccc3)C(=O)C2)cc1OC, which Potency is on record?
**A.** inactive

**Q.** Which Potency does the source give for CN(C)S(=O)(=O)c1cccc(C(=O)NCCOC(=O)c2cc(F)c(F)cc2Cl)c1 here?
**A.** inactive

**Q.** Which Potency does the source give for O=C(Nc1ccccc1N1CCCC1)c1ccccc1Cl here?
**A.** inconclusive [inhibitor, single point]

**Q.** For CCc1nc2ccc(C(=O)NCc3ccc(SC)cc3)cc2nc1CC, which Potency is on record?
**A.** inconclusive [inhibitor, single point]

**Q.** Which Potency does the source give for COc1ccc(-c2nc3ccc(C(=O)NCCCN4CCOCC4)cc3nc2-c2ccc(OC)cc2)cc1 here?
**A.** active: 23.1 µM

**Q.** With C/C(=N/Nc1ccc([N+](=O)[O-])cc1)c1c[nH]c2ccccc12 as the molecule, how does the Potency read?
**A.** inconclusive [inhibitor, single point]

**Q.** With O=C(CCCl)N1c2ccccc2C=Cc2ccccc21 as the molecule, how does the Potency read?
**A.** active: 14.6 µM
